{
  "source": "the supplement of paper PMC8728848",
  "binders": {"B1": {"name": "OVGAL11 (Ovis aries), AAF64320 (protein)", "chain": "MDSLPNPYLQSVSLTVCYMVKIKANLLSAFGKNPELQVDFGTGTGQGGNIPFRFWYCDGMVVMNTFTDGSWQKEEKVLTDAFVPGQPFELQFLVLEKEYQVFVKNKPICQFAHRLPLQSVKMLDVRGDIVLTSVDTL"}},
  "assay_in_all_cases": "glycan array binding signal (z-score within array); higher = stronger binding",
  "settings_in_all_cases": "glycan notation: IUPAC condensed, linker removed",
  "key": {"[1]": {"biological_target": "Neu5Ac(a2-3)Gal(b1-4)GlcNAc", "how_it_was_run": "(§1)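 The binding signal is a Z-score computed within each array and averaged over linkers. Arrays of the same protein sequence at different concentrations or buffers were also averaged together. Data originate from 3228 arrays in the Consortium for Functional Glycomics database, kept only where the protein sequence was available.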"}, "[2]": {"biological_target": "Neu5Ac(a2-3)Gal(b1-4)GlcNAc(b1-2)Man", "how_it_was_run": "as §1"}, "[3]": {"biological_target": "Neu5Ac(a2-3)Gal(b1-4)GlcNAc(b1-2)Man(a1-3)[GlcNAc(b1-4)][Neu5Ac(a2-3)Gal(b1-4)GlcNAc(b1-2)Man(a1-6)]Man(b1-4)GlcNAc(b1-4)GlcNAc", "how_it_was_run": "as §1"}, "[4]": {"biological_target": "Neu5Ac(a2-3)Gal(b1-4)GlcNAc(b1-2)Man(a1-3)[Neu5Ac(a2-3)Gal(b1-4)GlcNAc(b1-2)Man(a1-6)]Man(b1-4)GlcNAc(b1-4)GlcNAc", "how_it_was_run": "as §1"}, "[5]": {"biological_target": "Neu5Ac(a2-3)Gal(b1-4)GlcNAc(b1-2)Man(a1-3)[Neu5Ac(a2-3)Gal(b1-4)GlcNAc(b1-2)Man(a1-6)]Man(b1-4)GlcNAc(b1-4)[Fuc(a1-6)]GlcNAc", "how_it_was_run": "as §1"}, "[6]": {"biological_target": "Neu5Ac(a2-3)Gal(b1-4)GlcNAc(b1-2)Man(a1-3)[Neu5Ac(a2-6)Gal(b1-4)GlcNAc(b1-2)Man(a1-6)]Man(b1-4)GlcNAc(b1-4)GlcNAc", "how_it_was_run": "as §1"}, "[7]": {"biological_target": "Neu5Ac(a2-3)Gal(b1-4)GlcNAc(b1-2)[Neu5Ac(a2-3)Gal(b1-4)GlcNAc(b1-4)]Man(a1-3)[GlcNAc(b1-4)][Neu5Ac(a2-3)Gal(b1-4)GlcNAc(b1-2)[Neu5Ac(a2-3)Gal(b1-4)GlcNAc(b1-6)]Man(a1-6)]Man(b1-4)GlcNAc(b1-4)GlcNAc", "how_it_was_run": "as §1"}, "[8]": {"biological_target": "Neu5Ac(a2-3)Gal(b1-4)GlcNAc(b1-2)[Neu5Ac(a2-3)Gal(b1-4)GlcNAc(b1-4)]Man(a1-3)[GlcNAc(b1-4)][Neu5Ac(a2-3)Gal(b1-4)GlcNAc(b1-4)Man(a1-6)]Man(b1-4)GlcNAc(b1-4)GlcNAc", "how_it_was_run": "as §1"}, "[9]": {"biological_target": "Neu5Ac(a2-3)Gal(b1-4)GlcNAc(b1-2)[Neu5Ac(a2-3)Gal(b1-4)GlcNAc(b1-6)]Man(a1-6)[Neu5Ac(a2-3)Gal(b1-4)GlcNAc(b1-2)Man(a1-3)]Man(b1-4)GlcNAc(b1-4)GlcNAc", "how_it_was_run": "as §1"}, "[10]": {"biological_target": "Neu5Ac(a2-3)Gal(b1-4)GlcNAc(b1-2)[Neu5Ac(a2-3)Gal(b1-4)GlcNAc(b1-6)]Man(a1-6)[Neu5Ac(a2-3)Gal(b1-4)GlcNAc(b1-2)Man(a1-3)][GlcNAc(b1-4)]Man(b1-4)GlcNAc(b1-4)GlcNAc", "how_it_was_run": "as §1"}, "[11]": {"biological_target": "Neu5Ac(a2-3)Gal(b1-4)GlcNAc(b1-3)Gal", "how_it_was_run": "as §1"}, "[12]": {"biological_target": "Neu5Ac(a2-3)Gal(b1-4)GlcNAc(b1-3)Gal(b1-3)GlcNAc", "how_it_was_run": "as §1"}, "[13]": {"biological_target": "Neu5Ac(a2-3)Gal(b1-4)GlcNAc(b1-3)Gal(b1-4)GlcNAc", "how_it_was_run": "as §1"}, "[14]": {"biological_target": "Neu5Ac(a2-3)Gal(b1-4)GlcNAc(b1-3)Gal(b1-4)GlcNAc(b1-2)Man(a1-3)[Neu5Ac(a2-3)Gal(b1-4)GlcNAc(b1-3)Gal(b1-4)GlcNAc(b1-2)Man(a1-6)]Man(b1-4)GlcNAc(b1-4)GlcNAc", "how_it_was_run": "as §1"}, "[15]": {"biological_target": "Neu5Ac(a2-3)Gal(b1-4)GlcNAc(b1-3)Gal(b1-4)GlcNAc(b1-3)Gal(b1-4)GlcNAc", "how_it_was_run": "as §1"}, "[16]": {"biological_target": "Neu5Ac(a2-3)Gal(b1-4)GlcNAc(b1-3)Gal(b1-4)GlcNAc(b1-3)Gal(b1-4)GlcNAc(b1-2)Man(a1-3)[Neu5Ac(a2-3)Gal(b1-4)GlcNAc(b1-3)Gal(b1-4)GlcNAc(b1-3)Gal(b1-4)GlcNAc(b1-2)Man(a1-6)]GalNAc", "how_it_was_run": "as §1"}, "[17]": {"biological_target": "Neu5Ac(a2-3)Gal(b1-4)GlcNAc(b1-3)Gal(b1-4)GlcNAc(b1-3)GalNAc", "how_it_was_run": "as §1"}, "[18]": {"biological_target": "Neu5Ac(a2-3)Gal(b1-4)GlcNAc(b1-3)Gal(b1-4)GlcNAc(b1-3)[Neu5Ac(a2-3)Gal(b1-4)GlcNAc(b1-3)Gal(b1-4)GlcNAc(b1-6)]GalNAc", "how_it_was_run": "as §1"}, "[19]": {"biological_target": "Neu5Ac(a2-3)Gal(b1-4)GlcNAc(b1-3)Gal(b1-4)GlcNAc(b1-6)[Gal(b1-3)]GalNAc", "how_it_was_run": "as §1"}, "[20]": {"biological_target": "Neu5Ac(a2-3)Gal(b1-4)GlcNAc(b1-3)Gal(b1-4)[Fuc(a1-3)]GlcNAc", "how_it_was_run": "as §1"}, "[21]": {"biological_target": "Neu5Ac(a2-3)Gal(b1-4)GlcNAc(b1-3)GalNAc", "how_it_was_run": "as §1"}, "[22]": {"biological_target": "Neu5Ac(a2-3)Gal(b1-4)GlcNAc(b1-3)[Neu5Ac(a2-3)Gal(b1-4)GlcNAc(b1-6)]GalNAc", "how_it_was_run": "as §1"}, "[23]": {"biological_target": "Neu5Ac(a2-3)Gal(b1-4)GlcNAc(b1-6)GalNAc", "how_it_was_run": "as §1"}, "[24]": {"biological_target": "Neu5Ac(a2-3)Gal(b1-4)GlcNAc(b1-6)[Gal(b1-3)]GalNAc", "how_it_was_run": "as §1"}, "[25]": {"biological_target": "Neu5Ac(a2-3)Gal(b1-4)GlcNAc(b1-6)[Neu5Ac(a2-3)Gal(b1-3)]GalNAc", "how_it_was_run": "as §1"}, "[26]": {"biological_target": "Neu5Ac(a2-3)Gal(b1-4)GlcNAc6S", "how_it_was_run": "as §1"}, "[27]": {"biological_target": "Neu5Ac(a2-3)Gal(b1-4)[Fuc(a1-3)]GlcNAc", "how_it_was_run": "as §1"}, "[28]": {"biological_target": "Neu5Ac(a2-3)Gal(b1-4)[Fuc(a1-3)]GlcNAc(b1-2)Man", "how_it_was_run": "as §1"}, "[29]": {"biological_target": "Neu5Ac(a2-3)Gal(b1-4)[Fuc(a1-3)]GlcNAc(b1-3)Gal", "how_it_was_run": "as §1"}, "[30]": {"biological_target": "Neu5Ac(a2-3)Gal(b1-4)[Fuc(a1-3)]GlcNAc(b1-3)Gal(b1-4)GlcNAc", "how_it_was_run": "as §1"}, "[31]": {"biological_target": "Neu5Ac(a2-3)Gal(b1-4)[Fuc(a1-3)]GlcNAc(b1-3)Gal(b1-4)[Fuc(a1-3)]GlcNAc(b1-3)Gal(b1-4)[Fuc(a1-3)]GlcNAc", "how_it_was_run": "as §1"}, "[32]": {"biological_target": "Neu5Ac(a2-3)Gal(b1-4)[Fuc(a1-3)]GlcNAc(b1-3)GalNAc", "how_it_was_run": "as §1"}, "[33]": {"biological_target": "Neu5Ac(a2-3)Gal(b1-4)[Fuc(a1-3)]GlcNAc(b1-6)[Gal(b1-3)]GalNAc", "how_it_was_run": "as §1"}, "[34]": {"biological_target": "Neu5Ac(a2-3)Gal(b1-4)[Fuc(a1-3)]GlcNAc(b1-6)[Neu5Ac(a2-3)Gal(b1-3)]GalNAc", "how_it_was_run": "as §1"}, "[35]": {"biological_target": "Neu5Ac(a2-3)Gal(b1-4)[Fuc(a1-3)]GlcNAc6S", "how_it_was_run": "as §1"}, "[36]": {"biological_target": "Neu5Ac(a2-3)Gal6S(b1-4)GlcNAc", "how_it_was_run": "as §1"}, "[37]": {"biological_target": "Neu5Ac(a2-3)Gal6S(b1-4)[Fuc(a1-3)]GlcNAc", "how_it_was_run": "as §1"}, "[38]": {"biological_target": "Neu5Ac(a2-3)GalNAc", "how_it_was_run": "as §1"}},
  "note": "Some of the results follow.",
  "data": [
    {"binder": "B1", "values": [
      {"measurement": "glycan array binding signal (z-score)", "setting": "[1]", "result": -0.182},
      {"measurement": "glycan array binding signal (z-score)", "setting": "[2]", "result": -0.024},
      {"measurement": "glycan array binding signal (z-score)", "setting": "[3]", "result": -0.064},
      {"measurement": "glycan array binding signal (z-score)", "setting": "[4]", "result": -0.054},
      {"measurement": "glycan array binding signal (z-score)", "setting": "[5]", "result": -0.09},
      {"measurement": "glycan array binding signal (z-score)", "setting": "[6]", "result": -0.121},
      {"measurement": "glycan array binding signal (z-score)", "setting": "[7]", "result": -0.11},
      {"measurement": "glycan array binding signal (z-score)", "setting": "[8]", "result": -0.058},
      {"measurement": "glycan array binding signal (z-score)", "setting": "[9]", "result": -0.037},
      {"measurement": "glycan array binding signal (z-score)", "setting": "[10]", "result": -0.112},
      {"measurement": "glycan array binding signal (z-score)", "setting": "[11]", "result": -0.09},
      {"measurement": "glycan array binding signal (z-score)", "setting": "[12]", "result": -0.12},
      {"measurement": "glycan array binding signal (z-score)", "setting": "[13]", "result": -0.296},
      {"measurement": "glycan array binding signal (z-score)", "setting": "[14]", "result": -0.089},
      {"measurement": "glycan array binding signal (z-score)", "setting": "[15]", "result": -0.021},
      {"measurement": "glycan array binding signal (z-score)", "setting": "[16]", "result": -0.033},
      {"measurement": "glycan array binding signal (z-score)", "setting": "[17]", "result": -0.013},
      {"measurement": "glycan array binding signal (z-score)", "setting": "[18]", "result": -0.068},
      {"measurement": "glycan array binding signal (z-score)", "setting": "[19]", "result": -0.068},
      {"measurement": "glycan array binding signal (z-score)", "setting": "[20]", "result": -0.156},
      {"measurement": "glycan array binding signal (z-score)", "setting": "[21]", "result": -0.05},
      {"measurement": "glycan array binding signal (z-score)", "setting": "[22]", "result": -0.097},
      {"measurement": "glycan array binding signal (z-score)", "setting": "[23]", "result": -0.049},
      {"measurement": "glycan array binding signal (z-score)", "setting": "[24]", "result": -0.11},
      {"measurement": "glycan array binding signal (z-score)", "setting": "[25]", "result": -0.058},
      {"measurement": "glycan array binding signal (z-score)", "setting": "[26]", "result": -0.299},
      {"measurement": "glycan array binding signal (z-score)", "setting": "[27]", "result": -0.028},
      {"measurement": "glycan array binding signal (z-score)", "setting": "[28]", "result": -0.13},
      {"measurement": "glycan array binding signal (z-score)", "setting": "[29]", "result": -0.278},
      {"measurement": "glycan array binding signal (z-score)", "setting": "[30]", "result": -0.217},
      {"measurement": "glycan array binding signal (z-score)", "setting": "[31]", "result": -0.361},
      {"measurement": "glycan array binding signal (z-score)", "setting": "[32]", "result": -0.056},
      {"measurement": "glycan array binding signal (z-score)", "setting": "[33]", "result": -0.057},
      {"measurement": "glycan array binding signal (z-score)", "setting": "[34]", "result": -0.021},
      {"measurement": "glycan array binding signal (z-score)", "setting": "[35]", "result": -0.298},
      {"measurement": "glycan array binding signal (z-score)", "setting": "[36]", "result": -0.168},
      {"measurement": "glycan array binding signal (z-score)", "setting": "[37]", "result": -0.219},
      {"measurement": "glycan array binding signal (z-score)", "setting": "[38]", "result": -0.207}
    ]}
  ]
}
